Test results: the supplement of paper PMC12423691
The list shows a part of the results. Binding of human transcription factors and regulators to the viral nucleoprotein by AlphaScreen, crude cell-free proteins, amounts not normalised, one pass. Fold of the Venus control; higher = more signal. No active / inactive call. Single-pass screen; sequences are the whole Swiss-Prot entries looked up by name.

B1: RGCC, Q9H4X1 (protein)
chain: MKPPAAQGSPAAAAAAAPALDSAAAEDLSDALCEFDAVLADFASPFHERHFHYEEHLERMKRRSSASVSDSSGFSDSESADSLYRNSFSFSDEKLNSPTDSTPALLSATVTPQKAKLGDTKELEAFIADLDKTLASM
B2: TEAD3, Q99594 (protein)
chain: MASNSWNASSSPGEAREDGPEGLDKGLDNDAEGVWSPDIEQSFQEALAIYPPCGRRKIILSDEGKMYGRNELIARYIKLRTGKTRTRKQVSSHIQVLARKKVREYQVGIKAMNLDQVSKDKALQSMASMSSAQIVSASVLQNKFSPPSPLPQAVFSTSSRFWSSPPLLGQQPGPSQDIKPFAQPAYPIQPPLPPTLSSYEPLAPLPSAAASVPVWQDRTIASSRLRLLEYSAFMEVQRDPDTYSKHLFVHIGQTNPAFSDPPLEAVDVRQIYDKFPEKKGGLKELYEKGPPNAFFLVKFWADLNSTIQEGPGAFYGVSSQYSSADSMTISVSTKVCSFGKQVVEKVETEYARLENGRFVYRIHRSPMCEYMINFIHKLKHLPEKYMMNSVLENFTILQVVTSRDSQETLLVIAFVFEVSTSEHGAQHHVYKLVKD
B3: CREM, Q03060 (protein)
chain: MTMETVESQHDGSITASLTESKSAHVQTQTGQNSIPALAQVSVAGSGTRRGSPAVTLVQLPSGQTIHVQGVIQTPQPWVIQSSEIHTVQVAAIAETDESAESEGVIDSHKRREILSRRPSYRKILNELSSDVPGVPKIEEERSEEEGTPPSIATMAVPTSIYQTSTGQYIAIAQGGTIQISNPGSDGVQGLQALTMTNSGAPPPGATIVQYAAQSADGTQQFFVPGSQVVVQDEETELAPSHMAAATGDMPTYQIRAPTAALPQGVVMAASPGSLHSPQQLAEEATRKRELRLMKNREAAKECRRRKKEYVKCLESRVAVLEVQNKKLIEELETLKDICSPKTDY
B4: TAF2, Q6P1X5 (protein)
chain: MPLTGVEPARMNRKKGDKGFESPRPYKLTHQVVCINNINFQRKSVVGFVELTIFPTVANLNRIKLNSKQCRIYRVRINDLEAAFIYNDPTLEVCHSESKQRNLNYFSNAYAAAVSAVDPDAGNGELCIKVPSELWKHVDELKVLKIHINFSLDQPKGGLHFVVPSVEGSMAERGAHVFSCGYQNSTRFWFPCVDSYSELCTWKLEFTVDAAMVAVSNGDLVETVYTHDMRKKTFHYMLTIPTAASNISLAIGPFEILVDPYMHEVTHFCLPQLLPLLKHTTSYLHEVFEFYEEILTCRYPYSCFKTVFIDEAYVEVAAYASMSIFSTNLLHSAMIIDETPLTRRCLAQSLAQQFFGCFISRMSWSDEWVLKGISGYIYGLWMKKTFGVNEYRHWIKEELDKIVAYELKTGGVLLHPIFGGGKEKDNPASHLHFSIKHPHTLSWEYYSMFQCKAHLVMRLIENRISMEFMLQVFNKLLSLASTASSQKFQSHMWSQMLVSTSGFLKSISNVSGKDIQPLIKQWVDQSGVVKFYGSFAFNRKRNVLELEIKQDYTSPGTQKYVGPLKVTVQELDGSFNHTLQIEENSLKHDIPCHSKSRRNKKKKIPLMNGEEVDMDLSAMDADSPLLWIRIDPDMSVLRKVEFEQADFMWQYQLRYERDVVAQQESILALEKFPTPASRLALTDILEQEQCFYRVRMSACFCLAKIANSMVSTWTGPPAMKSLFTRMFCCKSCPNIVKTNNFMSFQSYFLQKTMPVAMALLRDVHNLCPKEVLTFILDLIKYNDNRKNKFSDNYYRAEMIDALANSVTPAVSVNNEVRTLDNLNPDVRLILEEITRFLNMEKLLPSYRHTITVSCLRAIRVLQKNGHVPSDPALFKSYAEYGHFVDIRIAALEAVVDYTKVDRSYEELQWLLNMIQNDPVPYVRHKILNMLTKNPPFTKNMESPLCNEALVDQLWKLMNSGTSHDWRLRCGAVDLYFTLFGLSRPSCLPLPELGLVLNLKEKKAVLNPTIIPESVAGNQEAANNPSSHPQLVGFQNPFSSSQDEEEIDMDTVHDSQAFISHHLNMLERPSTPGLSKYRPASSRSALIPQHSAGCDSTPTTKPQWSLELARKGTGKEQAPLEMSMHPAASAPLSVFTKESTASKHSDHHHHHHHEHKKKKKKHKHKHKHKHKHDSKEKDKEPFTFSSPASGRSIRSPSLSD
B5: PRKCQ, Q04759 (protein)
chain: MSPFLRIGLSNFDCGSCQSCQGEAVNPYCAVLVKEYVESENGQMYIQKKPTMYPPWDSTFDAHINKGRVMQIIVKGKNVDLISETTVELYSLAERCRKNNGKTEIWLELKPQGRMLMNARYFLEMSDTKDMNEFETEGFFALHQRRGAIKQAKVHHVKCHEFTATFFPQPTFCSVCHEFVWGLNKQGYQCRQCNAAIHKKCIDKVIAKCTGSAINSRETMFHKERFKIDMPHRFKVYNYKSPTFCEHCGTLLWGLARQGLKCDACGMNVHHRCQTKVANLCGINQKLMAEALAMIESTQQARCLRDTEQIFREGPVEIGLPCSIKNEARPPCLPTPGKREPQGISWESPLDEVDKMCHLPEPELNKERPSLQIKLKIEDFILHKMLGKGSFGKVFLAEFKKTNQFFAIKALKKDVVLMDDDVECTMVEKRVLSLAWEHPFLTHMFCTFQTKENLFFVMEYLNGGDLMYHIQSCHKFDLSRATFYAAEIILGLQFLHSKGIVYRDLKLDNILLDKDGHIKIADFGMCKENMLGDAKTNTFCGTPDYIAPEILLGQKYNHSVDWWSFGVLLYEMLIGQSPFHGQDEEELFHSIRMDNPFYPRWLEKEAKDLLVKLFVREPEKRLGVRGDIRQHPLFREINWEELERKEIDPPFRPKVKSPFDCSNFDKEFLNEKPRLSFADRALINSMDQNMFRNFSFMNPGMERLIS
B6: POU2F2, P09086 (protein)
chain: MVHSSMGAPEIRMSKPLEAEKQGLDSPSEHTDTERNGPDTNHQNPQNKTSPFSVSPTGPSTKIKAEDPSGDSAPAAPLPPQPAQPHLPQAQLMLTGSQLAGDIQQLLQLQQLVLVPGHHLQPPAQFLLPQAQQSQPGLLPTPNLFQLPQQTQGALLTSQPRAGLPTQAVTRPTLPDPHLSHPQPPKCLEPPSHPEEPSDLEELEQFARTFKQRRIKLGFTQGDVGLAMGKLYGNDFSQTTISRFEALNLSFKNMCKLKPLLEKWLNDAETMSVDSSLPSPNQLSSPSLGFDGLPGRRRKKRTSIETNVRFALEKSFLANQKPTSEEILLIAEQLHMEKEVIRVWFCNRRQKEKRINPCSAAPMLPSPGKPASYSPHMVTPQGGAGTLPLSQASSSLSTTVTTLSSAVGTLHPSRTAGGGGGGGGAAPPLNSIPSVTPPPPATTNSTNPSPQGSHSAIGLSGLNPSTGPGLWWNPAPYQP
B7: CTCFL, Q8NI51 (protein)
chain: MAATEISVLSEQFTKIKELELMPEKGLKEEEKDGVCREKDHRSPSELEAERTSGAFQDSVLEEEVELVLAPSEESEKYILTLQTVHFTSEAVELQDMSLLSIQQQEGVQVVVQQPGPGLLWLEEGPRQSLQQCVAISIQQELYSPQEMEVLQFHALEENVMVASEDSKLAVSLAETTGLIKLEEEQEKNQLLAERTKEQLFFVETMSGDERSDEIVLTVSNSNVEEQEDQPTAGQADAEKAKSTKNQRKTKGAKGTFHCDVCMFTSSRMSSFNRHMKTHTSEKPHLCHLCLKTFRTVTLLRNHVNTHTGTRPYKCNDCNMAFVTSGELVRHRRYKHTHEKPFKCSMCKYASVEASKLKRHVRSHTGERPFQCCQCSYASRDTYKLKRHMRTHSGEKPYECHICHTRFTQSGTMKIHILQKHGENVPKYQCPHCATIIARKSDLRVHMRNLHAYSAAELKCRYCSAVFHERYALIQHQKTHKNEKRFKCKHCSYACKQERHMTAHIRTHTGEKPFTCLSCNKCFRQKQLLNAHFRKYHDANFIPTVYKCSKCGKGFSRWINLHRHSEKCGSGEAKSAASGKGRRTRKRKQTILKEATKGQKEAAKGWKEAANGDEAAAEEASTTKGEQFPGEMFPVACRETTARVKEEVDEGVTCEMLLNTMDK
B8: DMRT3, Q9NQL9 (protein)
chain: MNGYGSPYLYMGGPVSQPPRAPLQRTPKCARCRNHGVLSWLKGHKRYCRFKDCTCEKCILIIERQRVMAAQVALRRQQANESLESLIPDSLRALPGPPPPGDAVAAPQPPPASQPSQPQPPRPAAELAAAAALRWTAEPQPGALQAQLAKPDLTEERLGDGKSADNTEVFSDKDTDQRSSPDVAKSKGCFTPESPEIVSVEEGGYAVQKNGGNPESRPDSPKCHAEQNHLLIEGPSGTVSLPFSLKANRPPLEVLKKIFPNQKPTVLELILKGCGGDLVSAVEVLLSSRSSVTGAERTSAEPESLALPSNGHIFEHTLSSYPISSSKWSVGSAFRVPDTLRFSADSSNVVPSPLAGPLQPPFPQPPRYPLMLRNTLARSQSSPFLPNDVTLWNTMTLQQQYQLRSQYVSPFPSNSTSVFRSSPVLPARATEDPRISIPDDGCPFVSKQSIYTEDDYDERSDSSDSRTLNTSS
B9: NEUROD1, Q13562 (protein)
chain: MTKSYSESGLMGEPQPQGPPSWTDECLSSQDEEHEADKKEDDLETMNAEEDSLRNGGEEEDEDEDLEEEEEEEEEDDDQKPKRRGPKKKKMTKARLERFKLRRMKANARERNRMHGLNAALDNLRKVVPCYSKTQKLSKIETLRLAKNYIWALSEILRSGKSPDLVSFVQTLCKGLSQPTTNLVAGCLQLNPRTFLPEQNQDMPPHLPTASASFPVHPYSYQSPGLPSPPYGTMDSSHVFHVKPPPHAYSAALEPFFESPLTDCTSPSFDGPLSPPLSINGNFSFKHEPSAEFEKNYAFTMHYPAATLAGAQSHGSIFSGTAAPRCEIPIDNIMSFDSHSHHERVMSAQLNAIFHD

target: nucleoprotein N of Crimean-Congo hemorrhagic fever virus; assay: AlphaScreen luminescence signal relative to Venus negative control (fold); higher = stronger binding to CCHFV N
Description: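 AlphaScreen binding of cell-free made, FLAG-GST-tagged human transcription factors and regulators (crude translation products) to biotinylated N protein; signal as fold of the FLAG-GST-Venus control. One pass.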

Binder | AlphaScreen luminescence signal
B1 | 1.02
B2 | 3.07
B3 | 1.77
B4 | 2.56
B5 | 2.05
B6 | 2.56
B7 | 2.74
B8 | 2.6
B9 | 3.07
